Among all 39,000 compounds or so, about 220 (0.56%) showed activity. This is one part of the list.
These molecules were tested on Escherichia coli K-12 BW25113 (assay: relative growth (OD600 normalised to plate interquartile mean) (fraction); higher = less growth inhibition, active = 0.2 or less). Settings: 50 µM; LB; incubation time: overnight (16-24 h).
With `COC(=O)c1ccc(C(=O)OC)nc1` the relative growth was inactive: 1.02.
With `C=CC(=O)NCCN1CCCCC1` the relative growth was inactive: 1.04.
`O=C(C[C@H]1C[C@@H]2c3cc(NC(=O)NC4CCCC4)ccc3O[C@@H]2[C@H](CO)O1)NCCN1CCCCC1` was tested, and the relative growth was inactive: 0.969.
For `C[C@@H]1CN([C@@H](C)CO)C(=O)c2cc(NS(C)(=O)=O)ccc2O[C@@H](C)CCCCO[C@@H]1CN(C)C(=O)Nc1ccc(C(F)(F)F)cc1`, the relative growth was inactive: 0.957.
In the case of `C[C@@H]1CCCCO[C@@H](CN(C)CC2CCCCC2)[C@H](C)CN([C@@H](C)CO)C(=O)c2cc(NC(=O)NC3CCCCC3)ccc2O1`, the relative growth is reported as inactive: 0.972.
In the case of `Cc1noc(C)c1NC(=O)N(C)C[C@@H]1Oc2cc(Br)ccc2S(=O)(=O)N([C@@H](C)CO)C[C@H]1C`, the relative growth is reported as inactive: 1.01.
With `COc1ccc(NC(=O)Nc2ccc3c(c2)C(=O)N([C@@H](C)CO)C[C@@H](C)[C@H](CN(C)Cc2ccc(C(F)(F)F)cc2)OCCCC[C@@H](C)O3)cc1` the relative growth was inactive: 0.97.
`Cc1noc(C)c1S(=O)(=O)Nc1ccc2c(c1)C(=O)N([C@H](C)CO)C[C@H](C)[C@@H](CN(C)Cc1ccccc1)O2` was tested, and the relative growth was inactive: 1.
In the case of `COc1ccc(NC(=O)N(C)C[C@@H]2OCCCC[C@H](C)Oc3ccc(NS(=O)(=O)c4ccc(F)cc4)cc3C(=O)N([C@H](C)CO)C[C@@H]2C)cc1`, the relative growth is reported as inactive: 1.01.
With `C[C@H]1CN([C@@H](C)CO)C(=O)Cc2cc(NS(=O)(=O)c3ccc(Cl)cc3)ccc2O[C@H]1CN(C)C(=O)Nc1ccc(C(F)(F)F)cc1` the relative growth was inactive: 1.01.
In the case of `COc1ccc(S(=O)(=O)N(C)C[C@H]2OCCCC[C@@H](C)Oc3ccc(NC(=O)Nc4ccc(F)cc4)cc3C(=O)N([C@@H](C)CO)C[C@H]2C)cc1`, the relative growth is reported as inactive: 1.01.
In the case of `C[C@@H]1CN([C@H](C)CO)C(=O)c2cc(NC(=O)Nc3cccc4ccccc34)ccc2O[C@@H]1CN(C)S(=O)(=O)c1ccccc1`, the relative growth is reported as inactive: 1.05.
With `C[C@@H]1CN([C@@H](C)CO)C(=O)c2cc(NS(=O)(=O)c3ccc(F)cc3)ccc2O[C@@H](C)CCCCO[C@@H]1CN(C)C(=O)CCC(F)(F)F` the relative growth was inactive: 1.
`Cc1ccc(S(=O)(=O)N(C)C[C@H]2OCCCC[C@@H](C)Oc3ccc(NC(=O)c4ccccc4)cc3C(=O)N([C@H](C)CO)C[C@@H]2C)cc1` was tested, and the relative growth was inactive: 1.01.
For `COc1ccc(NC(=O)Nc2cccc3c2O[C@H](CN(C)Cc2ccc(Cl)c(Cl)c2)[C@H](C)CN([C@@H](C)CO)C3=O)cc1`, the relative growth was inactive: 1.
For `C[C@H]1CN([C@@H](C)CO)C(=O)c2cccc(NC(=O)c3ccc(-c4nccs4)cc3)c2O[C@@H]1CN(C)C(=O)Nc1cccc2ccccc12`, the relative growth was inactive: 1.01.
For `O=C(O)[C@H](O)c1ccc(F)cc1`, the relative growth was inactive: 1.02.
With `C=C1SC(Nc2c(C)cccc2C)=NC12CCCCC2` the relative growth was inactive: 0.974.
For `Cc1cc(C)n(CCNC(=O)[C@H]2CCCN(c3cccc4c3C(=O)N(Cc3ccc5c(c3)OCO5)C4=O)C2)n1`, the relative growth was inactive: 0.993.
`CC(C)NC(=O)NCC[C@H]1CC[C@H](NC(=O)CN(C)C)[C@@H](CO)O1` was tested, and the relative growth was inactive: 1.05.
With `Cc1noc(C)c1S(=O)(=O)Nc1ccc2c(c1)CC(=O)N([C@H](C)CO)C[C@H](C)[C@H](CN(C)S(=O)(=O)c1cn(C)cn1)O2` the relative growth was inactive: 1.02.
In the case of `CO[C@H](C(=O)N(C)C[C@@H]1OCc2ccccc2-c2c(n(C)c3ccccc23)C(=O)N([C@H](C)CO)C[C@H]1C)c1ccccc1`, the relative growth is reported as inactive: 1.
`C[C@@H]1CN([C@@H](C)CO)C(=O)c2cc(NC(=O)Nc3ccccc3)ccc2O[C@@H](C)CCCCO[C@H]1CN(C)S(=O)(=O)c1cccc(F)c1` was tested, and the relative growth was inactive: 0.999.
For `C[C@@H]1CCCCO[C@@H](CN(C)S(=O)(=O)c2ccc(F)cc2)[C@H](C)CN([C@@H](C)CO)C(=O)c2cc(NC(=O)CCC(F)(F)F)ccc2O1`, the relative growth was inactive: 0.991.
`CC(=O)NCCCC[C@@H]1NC(=O)[C@H]2C[C@@H](C(=O)NCCCCCCN(C)C)[C@@H](c3cccc(OCCO)c3)N2C1=O` was tested, and the relative growth was inactive: 0.955.
For `CC(C)C#Cc1ccc2c(c1)O[C@@H](CN(C)C(=O)c1cccc(F)c1)[C@H](C)CN([C@H](C)CO)S2(=O)=O`, the relative growth was inactive: 1.03.
For `O=c1c2cccnc2ccn1C[C@H]1COCCO1`, the relative growth was inactive: 0.994.
`COC(=O)c1c2oc(c1C(=O)OC)C(=O)N[C@H](Cc1ccccc1)Cn1cc(nn1)[C@H](Cc1ccccc1)NC(=O)N[C@@H](COC(=O)NCCCCCC(=O)NO)CC2` was tested, and the relative growth was inactive: 1.02.
`Cc1noc(C)c1S(=O)(=O)N(C)C[C@H]1Oc2c(NC(=O)NC3CCCCC3)cccc2C(=O)N([C@H](C)CO)C[C@@H]1C` was tested, and the relative growth was inactive: 1.
With `COc1ccc(NC(=O)N(C)C[C@@H]2OCCCC[C@H](C)Oc3ccc(NC(=O)Nc4ccc(C(F)(F)F)cc4)cc3C(=O)N([C@@H](C)CO)C[C@@H]2C)cc1` the relative growth was inactive: 1.04.
For `COCC(=O)Nc1ccc2c(c1)OC[C@H](C)N(C(=O)Cc1cccnc1)C[C@@H](C)[C@@H](OC)CN(C)C2=O`, the relative growth was inactive: 1.04.
`CCNC(=O)c1sc(C)nc1N` was tested, and the relative growth was inactive: 1.03.
In the case of `Cc1cnc(C(=O)O)c[n+]1[O-]`, the relative growth is reported as inactive: 0.996.
With `Cc1ccc(-c2ccc3c(c2)O[C@@H](CN(C)Cc2cncnc2)[C@@H](C)CN([C@@H](C)CO)S3(=O)=O)cc1` the relative growth was inactive: 1.01.
In the case of `C[C@@H]1CN([C@@H](C)CO)C(=O)c2cccc(NC(=O)CCCCCC(=O)Nc3ccccc3N)c2O[C@@H]1CN(C)S(C)(=O)=O`, the relative growth is reported as inactive: 0.992.
With `C[C@H]1CN([C@@H](C)CO)C(=O)c2cccc(NC(=O)c3nc4ccccc4s3)c2O[C@@H]1CN(C)CC1CCCCC1` the relative growth was inactive: 0.984.
For `C[C@H]1CN([C@@H](C)CO)C(=O)CCCn2nncc2CO[C@@H]1CN(C)Cc1ccc2c(c1)OCCN2C`, the relative growth was inactive: 1.04.
`CC(=O)Nc1cccc(O)c1` was tested, and the relative growth was inactive: 1.08.
For `O=c1oc2cc3occ(-c4ccccc4)c3cc2c2ccccc12`, the relative growth was inactive: 0.907.
In the case of `CN(C)CCCNC(=O)C[C@@H]1CC[C@@H]2[C@@H](COc3ccc(NC(=O)c4cccc(F)c4)cc3C(=O)N2C)O1`, the relative growth is reported as inactive: 0.965.
`Cn1cnc(S(=O)(=O)N2C[C@H](O)COC[C@@H]3O[C@@H](CC(=O)NC4CCCC4)CC[C@H]32)c1` was tested, and the relative growth was inactive: 0.992.
`CCS(=O)(=O)NCC[C@@H]1CC[C@@H](NC(=O)Cc2ccccn2)[C@@H](CO)O1` was tested, and the relative growth was inactive: 0.996.
With `O=C(Nc1cccc(C(F)(F)F)c1)c1ccc2ccccc2c1` the relative growth was inactive: 0.997.
In the case of `COc1ccc(OCCC(=O)NN)cc1`, the relative growth is reported as inactive: 1.02.
In the case of `Cc1noc(C)c1NC(=O)Nc1ccc2c(c1)C(=O)N([C@H](C)CO)C[C@H](C)[C@H](CN(C)Cc1ccc(C(=O)Nc3ccccc3N)cc1)OCCCC[C@@H](C)O2`, the relative growth is reported as inactive: 1.
In the case of `Cc1noc(C)c1S(=O)(=O)N(C)C[C@@H]1Oc2c(NC(=O)C3CCOCC3)cccc2C(=O)N([C@@H](C)CO)C[C@@H]1C`, the relative growth is reported as inactive: 0.989.
In the case of `O=C(Nc1cccc2cccnc12)[C@@H]1[C@H](c2ccc3ccccc3c2)CC(=O)N1C(=O)OCc1ccccc1`, the relative growth is reported as inactive: 1.03.
In the case of `CCOC(=O)c1c[nH]c(=S)[nH]c1=O`, the relative growth is reported as inactive: 0.984.
`Cc1noc(C)c1S(=O)(=O)N(C)C[C@@H]1Oc2ccc(N(C)C)cc2CC(=O)N([C@H](C)CO)C[C@@H]1C` was tested, and the relative growth was inactive: 0.973.
With `O=c1c(O)c(-c2ccc(O)c(O)c2)oc2cc(O)cc(O)c12` the relative growth was inactive: 0.937.
`C[C@H]1CN([C@@H](C)CO)C(=O)c2cc(NC(=O)Nc3ccc(C(F)(F)F)cc3)ccc2O[C@@H]1CN(C)S(=O)(=O)c1ccc(F)cc1` was tested, and the relative growth was inactive: 1.02.
With `C[C@H](CO)N1C[C@H](C)[C@@H](CN(C)C(=O)Cc2ccncc2)Oc2cc(-c3cncnc3)ccc2S1(=O)=O` the relative growth was inactive: 1.01.
With `C[C@@H]1CN([C@H](C)CO)C(=O)Cc2cc(NS(=O)(=O)c3ccc(F)cc3)ccc2O[C@H]1CN(C)S(=O)(=O)c1cn(C)cn1` the relative growth was inactive: 0.991.
In the case of `C[C@H]1CN([C@@H](C)CO)C(=O)Cc2cc(NC(=O)Cc3cn(C)c4ccccc34)ccc2O[C@H]1CN(C)Cc1ccc(Cl)c(Cl)c1`, the relative growth is reported as inactive: 1.
With `C[C@@H]1CCCCO[C@@H](CN(C)C(=O)Nc2ccccc2)[C@@H](C)CN([C@H](C)CO)C(=O)c2cc(NC(=O)c3ccncc3)ccc2O1` the relative growth was inactive: 1.03.
With `C[C@H](CO)N1C[C@H](C)[C@H](CN(C)S(=O)(=O)c2ccc(Cl)cc2)OCCCC[C@H](C)Oc2ccc(NS(=O)(=O)c3ccc(Cl)cc3)cc2C1=O` the relative growth was inactive: 1.03.
`Cn1cnc(S(=O)(=O)N2C[C@H](O)COC[C@H]3O[C@@H](CC(=O)N4CCN(c5ccccc5)CC4)CC[C@@H]32)c1` was tested, and the relative growth was inactive: 1.01.
With `Cc1ccc(S(=O)(=O)Nc2ccc3c(c2)C(=O)N([C@H](C)CO)C[C@@H](C)[C@H](CN(C)Cc2ccccc2)OCCCC[C@H](C)O3)cc1` the relative growth was inactive: 1.04.
In the case of `OC[C@@H](O)[C@@H](O[C@@H]1O[C@H](CO)[C@H](O)[C@H](O)[C@H]1O)[C@H](O)[C@@H](O)CO`, the relative growth is reported as inactive: 0.984.
In the case of `C[C@@H]1CN([C@@H](C)CO)C(=O)c2cc(NC(=O)Nc3ccc(F)cc3)ccc2O[C@@H](C)CCCCO[C@@H]1CN(C)Cc1ccc(C(=O)O)cc1`, the relative growth is reported as inactive: 0.88.
For `COc1ccc(CCNS(=O)(=O)c2cn(C)c(=O)n(C)c2=O)cc1`, the relative growth was inactive: 0.979.
In the case of `C[C@@H]1CN([C@@H](C)CO)C(=O)c2cc(NS(=O)(=O)c3ccc(Cl)cc3)ccc2O[C@@H](C)CCCCO[C@@H]1CN(C)CC1CCCCC1`, the relative growth is reported as inactive: 0.988.

Source: the supplement of paper PMC9446081
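Note: static incubation at 37 °C against the wild-type strain, values averaged over two biological replicates.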
